{"source": "paper PMC10667928", "key": {"[1]": {"target": "CD28, a dimeric cell-surface receptor (reference dimer) (UniProt P10747)", "assay": "FRET or BRET; FRET-FLIM data of the fixed cells sorted by stoichiometry (<0.3, 0.3-0.5, 0.5-0.7, >0.7); dimerization grade by equation (8): β1AR as monomer baseline, CD28 at stoichiometry <0.3 as 100%"}, "[2]": {"target": "CD28, a dimeric cell-surface receptor (reference dimer) (UniProt P10747)", "assay": "FRET or BRET; FRET-FLIM (pulsed interleaved excitation) on fixed HEK293T cells, basal or apical membrane; first-named protomer with C-terminal eGFP (donor, written as binder), second with C-terminal mCherry (acceptor, written as target); donor/acceptor ratio 1:1 at transfection; lifetime-based FRET efficiency Eτ against donor-only samples"}, "[3]": {"target": "CD28, a dimeric cell-surface receptor (reference dimer) (UniProt P10747)", "assay": "FRET or BRET; FRET-FLIM (pulsed interleaved excitation) on fixed HEK293T cells, basal or apical membrane; first-named protomer with C-terminal eGFP (donor, written as binder), second with C-terminal mCherry (acceptor, written as target); donor/acceptor ratio 1:5 at transfection; lifetime-based FRET efficiency Eτ against donor-only samples"}}}
{"substance": "CD28, a dimeric cell-surface receptor (reference dimer) (a stretch of the chain, sequence left out) (receptor; other documents disagree on this pair)", "values": [{"measurement": "FRET efficiency Eτ at stoichiometry <0.3 (taken as 100% dimerization)", "setting": "[1]", "result": 34.1, "unit": "%"}, {"measurement": "FRET efficiency Eτ", "setting": "[2]", "result": 19.5, "unit": "%"}, {"measurement": "FRET efficiency Eτ", "setting": "[3]", "result": 32.6, "unit": "%"}]}
